Measurements published in PubChem BioAssay AID504832 (National Center for Advancing Translational Sciences (NCATS), 2011).
Among all 310,000 compounds or so, about 18,000 (5.8%) were called active. This list was built around the results that the source calls inconclusive (neither active nor inactive); the mix of calls is not that of the screen. The call rests on the fitted dose curve; in most records, active means well fitted inhibition curve with a large enough effect; inconclusive means small, poorly fitted or top-dose-only effect, or another doubt; inactive means no such curve, though single readings can be large or run the other way. No potency is given beside an inconclusive call; the fits are too rough.

Assay: Primary qHTS for delayed death inhibitors of the malarial parasite plastid, 48 hour incubation
Conditions: P. falciparum luciferase growth in erythrocytes; series mostly up to 28.7 µM; activity change, negative = inhibition: at the top concentration
Method in brief: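 Read-out is firefly luciferase luminescence from an integrated reporter in P. falciparum, so falling signal marks reduced parasite growth. Infected erythrocytes were at 2% hematocrit and 0.1% parasitemia (final) in Albumax-supplemented RPMI 1640.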
On the % scale 0 is the no-effect control and ±100 the full control effect; potency means the concentration at half of the fitted maximal effect; tags describe the fitted curve by direction and shape.

| SMILES | activity change, negative = inhibition | Potency |
| --- | --- | --- |
| COc1nc2c(c(-c3cc(Br)cs3)c1C#N)Cc1ccccc1-2 | inactive: 170% | – |
| COc1ccc(/C=N/OC(=O)c2ccc(Cl)cc2)c(Cl)c1OC | inactive: -3.95% | – |
| Cc1c(C(=O)Nc2ccc(F)cc2)oc2ccc(S(=O)(=O)N3CCCC3)cc12 | inactive: -5.03% | – |
| COc1ccc(-c2c(C(C)=O)c(C)nc3sc4c(=N)n(N)cnc4c23)cc1 | – | inconclusive [inhibitor, single point] |
| O=C1CCCC2=C1C(c1ccc3c(c1)OCO3)c1c([nH]n(-c3ccccc3)c1=O)N2 (centres undefined) | – | inconclusive [inhibitor, single point] |
| CC(C)CNS(=O)(=O)c1ccc(CCC(=O)N2CCC(C(N)=O)CC2)cc1 | – | inconclusive [inhibitor, single point] |
| Cc1ccc(/C=N/n2cc(-c3ccccc3)[nH]c2=S)s1 | – | inconclusive [inhibitor, single point] |
| COc1cccc(CN2CC(C(=O)NCCCc3ccncc3)CCC2=O)c1 (centres undefined) | inactive: 11.3% | – |
| COC(C(=O)Nc1c(F)cccc1F)c1ccccc1 (centres undefined) | inactive: -0.923% | – |
| O=C(Nc1cccc(S(=O)(=O)NC2=NCCC2)c1)c1cc(Cl)ccc1[N+](=O)[O-] | – | inconclusive [inhibitor, single point] |
| Cc1nnc(SCC(=O)NC(=O)Nc2ccc3c(c2)OCCO3)s1 | inactive: 109% | – |
| COCCNC(=S)NC1CC2CCCC(C1)N2Cc1cccs1 (centres undefined) | – | inconclusive [inhibitor, single point] |
| O=[N+]([O-])c1ccc(O)c(/C=N/NC(=S)Nc2ccc(Cl)cc2Cl)c1 | – | active: 2.08 µM |
| CCOc1ccccc1CN1CCNC(=O)C1CC(=O)NCc1nc(C)cs1 (centres undefined) | inactive: 4.73% | – |
| CCCCCC(=O)NNC(=O)Nc1ccccc1 | inactive: 23.4% | – |
| COc1ccc(S(=O)(=O)Nc2ccc(N3CCOCC3)nc2)cc1 | – | inconclusive [inhibitor, full curve, poor fit] |
| Cc1cc(NC(=O)CSc2nnc(-c3ccccc3)n2Cc2ccco2)no1 | – | inconclusive [inhibitor, single point] |
| Cc1ccc(OCC(=O)Nc2ccc(N3CCN(C(=O)c4ccco4)CC3)cc2)cc1 | – | inconclusive [inhibitor, partial curve, poor fit] |
| CCOC(=O)N1CCC(NC(=O)c2ccc3c(c2)sc2nc(-c4ccccc4)cn23)CC1 | – | active: 1.31 µM |
| COc1ccc(NC2CCCN(C(=O)C3(C)CCCCC3)C2)cc1 (centres undefined) | – | inconclusive [inhibitor, single point] |
| CSCC(C)N1CCC(CO)(CCc2ccccc2)CC1 (centres undefined) | – | inconclusive [inhibitor, partial curve, poor fit] |
| COc1ccc(N2CCC(CNC(=S)Nc3c(C)cc(C)cc3C)C2)cc1 (centres undefined) | – | active: 11.7 µM |
| Fc1ccc(CNCc2ccccc2Cl)cc1 | inactive: 2.87% | – |

| SMILES | activity change, negative = inhibition | Potency |
| --- | --- | --- |
| CCCC[C@@H]1C[C@H]1[C@@H](NC(=O)c1ccco1)c1ccc(Cl)cc1 | – | inconclusive [inhibitor, single point] |
| O=C1N(c2ccc(Cl)cc2)C(c2ccccc2)N2CCCN12 (centres undefined) | inactive: 5.79% | – |
| CCOC(=O)C1CCN(C(=O)CNC(=O)c2nn(-c3ccc(OC)c(OC)c3)c(=O)c3ccccc23)CC1 | – | inconclusive [inhibitor, partial curve, poor fit] |
| COc1ccc(-n2c(C)cc(-c3cn4cccc(C)c4n3)c2C)cc1 | – | inconclusive [inhibitor, partial curve] |
| COc1cc(C(=O)Nc2ccc3nc4n(c(=O)c3c2)CCCC4)ccc1Br | – | active: 8.28 µM |
| CC1(NC(=O)CN2CCN(c3cnn(-c4ccccc4)c(=O)c3Cl)CC2)CCS(=O)(=O)C1 (centres undefined) | – | inconclusive [inhibitor, single point] |
| Cc1cccc(OCC(O)CN2CCOCC2)c1 (centres undefined) | inactive: -35.5% | – |
| CN(C)CCCNC(=S)N(CCN(C)C)Cc1cc2cc3c(cc2[nH]c1=O)OCCO3 | inactive: 0.0454% | – |
| O=C(NNC(=O)c1ccccc1OCc1ccc(F)cc1)c1ccccc1O | – | inconclusive [inhibitor, single point] |
| Cc1ccc(O)c(/C=N/NC(=O)CN2CCCC2)c1 | – | inconclusive [inhibitor, partial curve, poor fit] |
| CC1CCC(NC(=O)C2c3ccccc3C(=O)N2CCCN2CCOCC2)CC1 (centres undefined) | inactive: 3.35% | – |
| O=C(C1=C[C@H](c2csc3ccccc23)C[C@H](OCc2ccc(CO)cc2)O1)N1CCN(Cc2ccc3c(c2)OCO3)CC1 | – | inconclusive [inhibitor, full curve, poor fit] |
| Cc1ccccc1CN1CCC(C(=O)Nc2ccc(Oc3cccnc3)cc2)CC1 | – | inconclusive [inhibitor, single point] |
| Cn1c2cc(C#N)sc2c2cnn(Cc3ccc(F)cc3)c(=O)c21 | inactive: 0.75% | – |
| CC(CCc1ccccc1)NC(=O)CSc1nnnn1C (centres undefined) | inactive: 3.92% | – |
| Cc1cccc(C2c3[nH]c4ccccc4c3CCN2C(=O)c2cc(CC(C)C)nc(C)n2)n1 (centres undefined) | – | active: 11.7 µM |
| O=C(O)C1CCCN1S(=O)(=O)c1cccc(S(=O)(=O)N2CCCC2C(=O)O)c1 (centres undefined) | – | inconclusive [inhibitor, full curve, poor fit] |
| Cc1ccc(NC(=O)c2ccc(NCc3ccco3)c([N+](=O)[O-])c2)cc1Cl | – | inconclusive [inhibitor, full curve] |
| CC(C)C[C@H](NC(=O)c1[nH]cnc1C(=O)N[C@@H](Cc1ccccc1)C(=O)OC(C)(C)C)C(=O)OC(C)(C)C | – | active: 9.28 µM |
| O=C(COc1ccc(Br)cc1CNCCCN1CCOCC1)Nc1ccccc1 | – | active: 3.7 µM |
| CCn1cc(CN2CCC(n3nccc3NC(=O)Cc3ccccc3)CC2)cn1 | inactive: -7.51% | – |
| COc1ccc(N(CC(=O)NC2CCCCC2)C(=O)c2ccc(C)s2)c(OC)c1 | – | inconclusive [inhibitor, partial curve, poor fit] |
| COc1ccc(OC)c(CNC(=O)c2nn(C)c3c2CS(=O)(=O)c2ccccc2-3)c1 | inactive: -12.3% | – |

| SMILES | activity change, negative = inhibition | Potency |
| --- | --- | --- |
| Cn1c(NCCN2CCOCC2)nc2c1c(=O)n(Cc1cccc(Cl)c1)c(=O)n2C | – | inconclusive [inhibitor, partial curve] |
| CCCc1cc(=O)oc2c(C)c(OCC(=O)NC3CCN(Cc4ccccc4)CC3)ccc12 | – | inconclusive [inhibitor, single point] |
| CC1=C(C(=O)OCc2ccccc2)C(c2cccc([N+](=O)[O-])c2)NC(=O)N1CCCCCC(=O)O (centres undefined) | – | inconclusive [inhibitor, single point] |
| COc1ccccc1OCCNC(=O)C1CC(=O)N(Cc2ccc(C)cc2)C1 (centres undefined) | – | inconclusive [inhibitor, partial curve, poor fit] |
| CCOC(=O)c1c(Nc2ccccc2OCCOC)n[nH]c1C | – | inconclusive [inhibitor, partial curve] |
| CCOc1ccc(N2C(=O)C(Cl)=C(N3CCOCC3)C2=O)cc1 | – | inconclusive [inhibitor, single point] |
| CN1CCC(N(C)C(=O)/C=C/c2cn(-c3ccccc3)nc2-c2cccs2)CC1 | – | active: 5.86 µM |
| CCCC(=O)Nc1nc(C)c(-c2csc(Nc3cc(OC)ccc3OC)n2)s1 | – | inconclusive [inhibitor, partial curve] |
| CC(NC(=O)c1ccc(N2CCNCC2)c([N+](=O)[O-])c1)C12CC3CC(CC(C3)C1)C2 (centres undefined) | – | inconclusive [inhibitor, partial curve] |
| CC(C)c1ccccc1-n1c(SCc2cc(=O)oc3ccc4ccccc4c23)nnc1-c1cccnc1 | – | active: 13.1 µM |
| CC(=O)Nc1cccc(C(=O)OC2CCOC2=O)c1 (centres undefined) | – | inconclusive [inhibitor, full curve, poor fit] |
| CCC(C)NC(=O)c1cn(CC)c2ccc(S(=O)(=O)N3CCCCCC3)cc2c1=O (centres undefined) | – | inconclusive [inhibitor, partial curve] |
| Cc1ccc(NC2=C(N3CCCCC3)C(=O)c3ccccc3C2=O)cc1 | – | active: 0.165 µM |
| CCN(CC)CCN1C(=O)C(=O)/C(=C(/O)c2ccc(OC)cc2)C1c1cccs1 (centres undefined) | – | inconclusive [inhibitor, full curve, poor fit] |
| CCOc1ccc(OCC)c(NC(=O)CCS(=O)(=O)c2ccc(Br)s2)c1 | – | inconclusive [inhibitor, partial curve, poor fit] |
| Cc1cccc(NC(=O)CSCC(=O)Nc2sccc2C#N)c1 | – | inconclusive [inhibitor, single point] |
| CCCN1CCc2c(sc(NC(=O)c3ccc(S(=O)(=O)N4CCCC4)cc3)c2C(N)=O)C1 | – | active: 9.28 µM |
| O=C(CCN1C(=O)C2C3C=CC(C3)C2C1=O)NCCN1CCCc2ccccc21 (centres undefined) | – | inconclusive [inhibitor, partial curve, poor fit] |
| N#CC12CCCCC1CC1CCCCC1(C#N)N2Cc1ccccn1 (centres undefined) | – | inconclusive [inhibitor, full curve, poor fit] |
| CCc1ccc(-n2c(C)cc(/C=N/NC(=O)OC)c2C)cc1 | – | inconclusive [inhibitor, single point] |
| Cc1c(NS(C)(=O)=O)cccc1-c1nc2cccnc2s1 | inactive: 48.7% | – |
| O=C(NCCc1c[nH]c2ccccc12)/C(=C\c1cccs1)NC(=O)c1ccccc1 | – | inconclusive [inhibitor, partial curve, poor fit] |
| Cc1n[nH]c(C)c1CCN | – | inconclusive [inhibitor, single point] |
